Hit rate of the full screen: of about 420,000 compounds, about 64,000 (15%) were called active. Inconclusive means that the source gave no clear call. Such entries were picked first, then a sample of the others. The call rests on the fitted dose curve; in most records, active means well fitted inhibition curve with a large enough effect; inconclusive means small, poorly fitted or top-dose-only effect; inactive means flat fitted curve, though single readings scatter. No potency is given beside an inconclusive call; the fits are too rough.
Experiment: qHTS for Inhibitors of human tyrosyl-DNA phosphodiesterase 1 (TDP1): qHTS in cells in absence of CPT; further: nearly all actives have a fitted effect of over 55% in size
Conditions: DT40 Tdp1-/- hTDP1 cells, no CPT, ATP luminescence, 48 h; activity change, negative = growth inhibition: at 46.2 µM (top of the series)
How it was run: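 No-CPT arm: Tdp1-/-;hTDP1 DT40 cells (400/well) plus compounds, incubated ≥48 hr at 37 °C. Readout CellTiter-Glo luminescence.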
On the % scale 0 is the no-effect control and ±100 the full control effect; potency means the concentration at half of the fitted maximal effect; tags describe the fitted curve by direction and shape.

Row | Compound | Potency | activity change, negative = growth inhibition
1 | Cc1ccc(/C=C/C(=O)c2ccccc(=O)c2O)c(C)c1 | active: 20.6 µM | –
2 | COc1ccc(NC(=O)c2nc[nH]c2C(=O)N(C)Cc2ccccc2)cc1 | inconclusive [inhibitor, single point] | –
3 | Brc1ccccc1OCCCCn1cnc2ccccc21 | active: 10.3 µM | –
4 | O=C(NCc1nnnn1-c1ccc(F)c(F)c1)C(=O)c1c[nH]c2ccccc12 | inactive | –
5 | Cc1cc2c(cc1C)N1C(=O)c3cc4ccccc4cc3NC(=O)C1C(=O)N2 (centres undefined) | inconclusive [inhibitor, single point] | –
6 | CC1(C)CC(=O)C2=C(C1)N(Cc1ccccc1)C(=O)C2(NC(=O)C(C)(C)C)C(F)(F)F (centres undefined) | – | inconclusive: -19% [inhibitor]
7 | Cc1c(C(=O)O)c(=S)sn1CCOc1ccccc1 | inconclusive [inhibitor, single point] | –
8 | COc1ccc(-c2cccc(NS(=O)(=O)c3cc(C(F)(F)F)ccc3Cl)c2)nn1 | inconclusive [inhibitor, single point] | –
9 | Cc1[nH][nH]c(=O)c1C(c1cc2c(cc1Br)OCO2)c1c(C)[nH][nH]c1=O | inconclusive [inhibitor, single point] | –
10 | COc1ccc(-n2cc(-c3ccccc3)c3c(N4CCCC(C)C4)ncnc32)cc1 (centres undefined) | active: 10.3 µM | –
11 | COc1ccc2[nH]c(C)c(CCNC(=S)Nc3cc(C)cc(C)c3)c2c1 | inconclusive [inhibitor, single point] | –
12 | CCc1nc2ccc(C(=O)NCc3ccccc3C)cc2nc1CC | inconclusive [inhibitor, single point] | –
13 | CN(C)S(=O)(=O)N1CCC(Oc2ccc(C(=O)N3CCCCCCC3)cc2)CC1 | active: 16.4 µM | –
14 | Cc1csc(NC(=O)CSc2nnc(Cc3cccn3C)n2CCc2ccccc2)n1 | inconclusive [inhibitor, partial curve] | –
15 | CN1CCN(CC(=O)Nc2nnc(-c3cccs3)s2)CC1 | inactive | –
16 | Cc1ccc(C(O)c2nc3ccccc3n2C(C)C)cc1 (centres undefined) | inconclusive [inhibitor, partial curve] | –
17 | C#CCN(C[C@H]1[C@H](OC(=O)NCc2ccccc2F)[C@H](OC(=O)NCc2ccccc2F)C[C@H]2C(=O)N(c3ccccc3)C(=O)[C@@H]12)S(=O)(=O)c1ccc(C)cc1 | – | inconclusive: -30.7% [inhibitor]
18 | CCOC(OCC)c1cc2ccccc2cn1 | inactive | –
19 | CCOC(=O)c1ccc(NC(=S)NCCc2ccccc2)cc1 | active: 20.6 µM | –
20 | CC(=O)CC1c2cc(F)ccc2C=C(c2ccsc2)N1c1ccc(C#Cc2cncn2C)cc1 (centres undefined) | inconclusive [inhibitor, single point] | –
21 | Cc1ccc(CN2c3ccccc3-c3nc(SCC(=O)NCc4ccccc4)ncc3S2(=O)=O)cc1 | inactive | –
22 | O=C(CS(=O)(=O)c1cccc2nsnc12)NCc1ccccc1Cl | inconclusive [inhibitor, single point] | –
23 | CCCOc1ccc(Cl)cc1/C=C1/C(=O)ON=C1C | inconclusive [inhibitor, single point] | –
24 | CC/C(C)=N/N1C(=O)c2ccccc2NC1(C)CC (centres undefined) | inactive | –
25 | O=C(O)C1CCCCC1C(=O)NCc1ccc(Cl)c(Cl)c1 (centres undefined) | inconclusive [inhibitor, single point] | –

Row | Compound | Potency | activity change, negative = growth inhibition
26 | Cn1c(SCc2ccc(Br)cc2)nc2c(c1=O)SCC2 | active: 16.4 µM | –
27 | CC(=O)Nc1cc(F)c2c(c1F)Cc1cc(F)ccc1-2 | inconclusive [inhibitor, single point] | –
28 | COc1cccc(NC(=O)c2ccc3snnc3c2)c1 | inconclusive [inhibitor, single point] | –
29 | CCN(C(=S)NC(=O)CCc1ccccc1)c1ccccc1 | inconclusive [inhibitor, partial curve, poor fit] | –
30 | Cc1ccc(N(CC(=O)Nc2ccc(F)cc2F)S(=O)(=O)c2cccs2)cc1 | inconclusive [inhibitor, partial curve, poor fit] | –
31 | CCN(Cc1ccccc1)Cc1cccc([N+](=O)[O-])c1 | inconclusive [inhibitor, single point] | –
32 | Nc1nc(SCC(=O)Nc2ccc(Cl)cn2)n[nH]1 | inactive | –
33 | NC(=O)c1ncn([C@@H]2O[C@H](CNC(=O)[C@H](N)CSCc3ccccc3)[C@@H](O)[C@H]2O)n1 | inactive | –
34 | CN=C(Nc1ccc(Br)cc1)SC1CC(=O)N(c2ccc(OC)cc2)C1=O (centres undefined) | inconclusive [inhibitor, single point] | –
35 | CN1C(=O)c2cccc(NC(=O)Cc3ccccc3)c2C1=O | inactive | –
36 | CCOc1ccc(NC(=S)NC23CC4CC(CC(C4)C2)C3)cc1 | inconclusive [inhibitor, single point] | –
37 | Cc1cc(=O)n2nc(N3CCCC(C(=O)N4CCN(c5ccccc5)CC4)C3)sc2n1 (centres undefined) | inconclusive [inhibitor, single point] | –
38 | CCc1cccc(C)c1NC(=O)CN(C)Cc1cccc(F)c1 | active: 16.4 µM | –
39 | CCc1nnc(NC(=O)CSc2nnc(-c3ccncc3)n2C)s1 | inactive | –
40 | O=C(N[C@@H](Cc1ccccc1)C(=O)OCC(=O)N1CCOCC1)c1cccs1 | inactive | –
41 | COc1cccc(Oc2ccc(N/C=C/C(=O)C(C)(C)C)cc2)c1 | inconclusive [inhibitor, partial curve] | –
42 | Cc1cccc2cc(CN(Cc3ccco3)C(c3nnnn3CCc3ccccc3)C(C)C)c(=O)[nH]c12 (centres undefined) | active: 14.6 µM | –
43 | CCC(=O)Nc1nc2ccc(S(C)(=O)=O)cc2s1 | inactive | –
44 | COc1ccc(NC(=O)CSc2nnc(-c3ccccc3C)n2N)cc1 | active: 20.6 µM | –
45 | O=C1[C@H]2[C@@H](c3ccc(Cl)cc3)N3C(=O)N(c4cccc(F)c4)C(=O)[C@@]3(Cc3ccc(Cl)cc3)[C@H]2C(=O)N1C1CCCCC1 | active: 16.4 µM | –
46 | Cc1ccn2c(=O)nc(SCC(=O)NCc3ccccc3Cl)nc2c1 | inactive | –
47 | Cc1ccc(NC(=O)c2ccc(Br)o2)cc1S(=O)(=O)N(C)C | inconclusive [inhibitor, single point] | –
48 | O=C(CCCN=C1NS(=O)(=O)c2ccccc21)OCc1ccccc1 | inconclusive [inhibitor, single point] | –
49 | CCC(C)C(=O)N1c2ccccc2C(=C2SC(C(=O)OC)=C(C(=O)OC)S2)C(=S)C1(C)C (centres undefined) | active: 12.6 µM | –
50 | O=[N+]([O-])c1ccc2oc(/C=C/c3ccc(O)cc3)nc2c1 | inconclusive [inhibitor, single point] | –

Row | Compound | Potency | activity change, negative = growth inhibition
51 | COc1cc(NC(=O)Nc2cccc([N+](=O)[O-])c2)cc(OC)c1 | inconclusive [inhibitor, single point] | –
52 | Cc1cc(C(=O)CN2CC(C)OC(C)C2)c(C)n1-c1ccccc1 (centres undefined) | inconclusive [inhibitor, single point] | –
53 | CCCCn1c(N)c(N(CCOC)C(=O)CSCc2ccc(Cl)c(Cl)c2)c(=O)[nH]c1=O | inconclusive [inhibitor, single point] | –
54 | COC(=O)N/N=C\c1ccc(OC(=O)c2ccco2)cc1 | inactive | –
55 | Cc1ccc2c(CN3CCN(c4ccc(Cl)c(Cl)c4)CC3)cc(=O)oc2c1 | inconclusive [inhibitor, single point] | –
56 | Cc1cc(C)n(CCSCC(=O)O)n1 | inactive | –
57 | CN1CCN(NC(=O)/C=C/c2cccc([N+](=O)[O-])c2)CC1 | inactive | –
58 | CC(=O)Nc1ccccc1C(=O)C(=O)Nc1ccc(C)c(F)c1 | inconclusive [inhibitor, single point] | –
59 | CC1CCN(c2cc(N(C)CCO)c([N+](=O)[O-])c3nonc23)CC1 | inconclusive [inhibitor, single point] | –
60 | Cc1cc(C)n2[nH]c(=O)c(N=Nc3cccc(C(F)(F)F)c3)c2n1 | inconclusive [inhibitor, single point] | –
61 | CCOc1ccc(NC(=O)CN(C)C(=O)c2cc3c(s2)CCCCC3)cc1OCC | inconclusive [inhibitor, single point] | –
62 | COc1ccc(C(NC(C)=O)c2ccc3cccnc3c2O)c(OC)c1 (centres undefined) | active: 2.91 µM | –
63 | Cc1ccc(NC(=O)c2oc3ccc(S(=O)(=O)N4CCCCC4)cc3c2C)c(C)c1 | inactive | –
64 | COc1cccc(NC2CC(=O)N(CCc3ccccc3)C2=O)c1 (centres undefined) | inconclusive [inhibitor, partial curve] | –
65 | CCN(C(=O)COC(=O)c1ccccc1O)c1cccc2ccccc12 | inactive | –
66 | CCCN1CCOC(CC(=O)Nc2ccc([N+](=O)[O-])cc2)C1=O (centres undefined) | inconclusive [inhibitor, single point] | –
67 | CCCCCCc1cc2cc(-c3nnc(-c4cccc(Cl)c4)o3)c(=O)oc2cc1O | inactive | –
68 | Oc1ccccc1-c1nc(NCc2ccccc2)c2ccccc2n1 | inconclusive [inhibitor, single point] | –
69 | CC1(C)CC(=O)NC=C(c2ccccc2)C1 | inactive | –
70 | O=C1NC(c2cccc(Cl)c2)Nc2ccccc21 (centres undefined) | active: 16.4 µM | –
71 | Cc1cc(Br)ccc1NC(=O)c1sc2ncn(CC(=O)N3CCN(c4ccccn4)CC3)c(=O)c2c1C | inactive | –
72 | CC1(C(=O)Nc2ccc3c(c2)OCO3)CCN1C(=O)Cc1cc(F)ccc1F (centres undefined) | inactive | –
73 | Cc1cccc(N2CCN(C(=O)C(C)n3nc(C)n4c(cc5occc54)c3=O)CC2)c1C (centres undefined) | active: 18.4 µM | –
74 | COc1cc(/C=C2\SC(=S)N(NC(=O)c3ccccc3OC)C2=O)ccc1O | inconclusive [inhibitor, single point] | –

From PubChem BioAssay AID686978 (National Center for Advancing Translational Sciences (NCATS), 2013)
